# Values quoted from earlier work in paper PMC8435859 (Frontiers in Cellular and Infection Microbiology, 2021).
# Assays:
# EV71 = settings: vendor library annotation, ref Li SW, et al. Eur J Pharmacol. 2014; cited from earlier work
# JEV = settings: vendor library annotation, ref Li SW, et al. Eur J Pharmacol. 2014; cited from earlier work
smiles,measurement,setting,value
O=C1c2cccc(O)c2C(=O)c2c(O)cc(CO)cc21 [Aloe-emodin],IC50,EV71,0.33 µg/mL
same,IC50,JEV,1 µg/mL
